# Values joined by “and” are separate entries in the source; they are usually repeats but may differ in a detail not shown here. Equal values may be shown once. The shares of active, inactive and inconclusive entries below differ from those in the screen. A potency beside an inconclusive call is a rough fit, not a confirmed value. Active and inactive are the calls of the source. Calls follow the shape of the dose curve; as a rule, active = well fitted curve in the direction sought with a large enough effect; inconclusive = small, poorly fitted or top-dose-only effect, or another doubt; inactive = no such curve, though single readings can be large; an effect the other way counts as inactive or inconclusive.
# Tested on: not listed separately
# Test: Quantitative high throughput screen for delayed death inhibitors of the malarial parasite plastid, 96 hour incubation (AID 488745); also: nearly all actives have a fitted effect of over 70% in size
# Conditions: Plasmodium falciparum growth; series mostly up to 28.7 µM
# How it was run: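 Two-generation (96 h) exposure of luciferase-reporter P. falciparum in erythrocytes, 2% hematocrit, 0.1% parasitemia final, 37 C, 5% CO2, RPMI 1640 with 0.5% Albumax. Growth inhibition scored by reduced luminescence.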
# Potency is read from the fitted curve at half-maximal effect; tags tell the direction and shape of the fitted curve.
row,SMILES,Potency
1,S=C(Nc1ccccc1)Nc1nccs1,active: 9.28 µM
2,CCc1cccc(N(C)C(N)=Nc2cccc3ccccc23)c1,"inconclusive: 18.5 µM [inhibitor, single point]"
3,CCN(CC)CCCC(C)Nc1c2ccc(Cl)cc2nc2ccc(OC)cc12 (stereo not drawn),active: 0.0117 µM
4,O=C1C(SCCO)=C(SCCO)C(=O)c2ccccc21,"inconclusive: 18.5 µM [inhibitor, single point]"
5,O=Nc1c(-c2c(O)[nH]c3cc(Br)ccc23)[nH]c2ccccc12,active: 4.65 µM
6,O=C(CCCN1CCC(O)(c2ccc(Cl)cc2)CC1)c1ccc(F)cc1,active: 7.38 µM
7,Oc1cc(O)cc(/C=C/c2ccc(O)c(O)c2)c1,"inconclusive: 2.33 µM [activator, partial curve]"
8,O=c1cc(N2CCOCC2)oc2c(-c3ccccc3)cccc12,"inconclusive: 2.33 µM [activator, full curve, poor fit]"

# Tested on: not listed separately
# Test: Quantitative high throughput screen for delayed death inhibitors of the malarial parasite plastid, 48 hour incubation (AID 488752); also: nearly all actives have a fitted effect of over 65% in size
# Conditions: Plasmodium falciparum growth; series mostly up to 28.7 µM
# How it was run: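 Cultures: infected erythrocytes at final 2% hematocrit and 0.1% parasitemia in Albumax-supplemented RPMI. Parasites express integrated firefly luciferase. Incubation with compound lasts 48 h before luminescent detection of remaining reporter activity.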
row,SMILES,Potency
1,CCN(CC)C(=S)SSC(=S)N(CC)CC,"inconclusive: 1.85 µM [inhibitor, full curve, poor fit]"
2,CN(C)c1ccc(/C=C2\C(=O)Nc3ccccc32)cc1,"inconclusive: 2.62 µM [activator, full curve]"
3,S=C(Nc1ccccc1)Nc1nccs1,"inconclusive: 18.5 µM [inhibitor, single point]"
4,OCc1cc(C(O)CNCCCCCCOCCCCc2ccccc2)ccc1O (stereo not drawn),"inconclusive: 18.5 µM [inhibitor, single point]"
5,CCc1cccc(N(C)C(N)=Nc2cccc3ccccc23)c1,inactive
6,CCN(CC)CCCC(C)Nc1c2ccc(Cl)cc2nc2ccc(OC)cc12 (stereo not drawn),active: 0.037 µM
7,O=C(Nc1ccc([N+](=O)[O-])cc1Cl)c1cc(Cl)ccc1O,"inconclusive: 1.31 µM [inhibitor, full curve, poor fit]"
8,CSc1ccc2c(c1)C(N1CCN(C)CC1)Cc1ccccc1S2 (stereo not drawn),"inconclusive: 16.5 µM [inhibitor, partial curve, poor fit]"
9,Oc1ccc(/C=C/c2cc(O)cc(O)c2)cc1,"inconclusive: 2.08 µM [activator, single point]"
10,O=C1C(SCCO)=C(SCCO)C(=O)c2ccccc21,"inconclusive: 18.5 µM [inhibitor, single point]"
11,O=Nc1c(-c2c(O)[nH]c3cc(Br)ccc23)[nH]c2ccccc12,active: 10.4 µM
12,O=C(CCCN1CCC(O)(c2ccc(Cl)cc2)CC1)c1ccc(F)cc1,active: 10.4 µM
13,Oc1cc(O)cc(/C=C/c2ccc(O)c(O)c2)c1,"inconclusive: 1.47 µM [activator, partial curve]"

# Target: Thioredoxin reductase 1, cytoplasmic (Rattus norvegicus) (UniProt O89049)
# Sequence of UniProt O89049 (O89049 whole entry, looked up): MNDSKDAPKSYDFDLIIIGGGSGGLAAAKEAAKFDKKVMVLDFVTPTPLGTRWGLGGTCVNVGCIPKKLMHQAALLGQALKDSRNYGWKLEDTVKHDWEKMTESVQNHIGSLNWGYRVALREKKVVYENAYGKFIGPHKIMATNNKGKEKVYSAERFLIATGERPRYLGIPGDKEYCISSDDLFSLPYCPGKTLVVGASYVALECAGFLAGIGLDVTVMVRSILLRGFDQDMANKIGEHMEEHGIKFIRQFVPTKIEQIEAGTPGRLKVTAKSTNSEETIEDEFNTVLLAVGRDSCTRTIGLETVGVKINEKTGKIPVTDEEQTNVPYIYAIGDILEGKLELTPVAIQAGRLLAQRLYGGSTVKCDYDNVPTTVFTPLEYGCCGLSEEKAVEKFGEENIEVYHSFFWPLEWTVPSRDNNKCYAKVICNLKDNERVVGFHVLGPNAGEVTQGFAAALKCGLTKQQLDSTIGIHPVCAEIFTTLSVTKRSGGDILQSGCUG
# Test: qHTS Assay for Inhibitors of Mammalian Selenoprotein Thioredoxin Reductase 1 (TrxR1) (AID 488773); also: nearly all actives have a fitted effect of over 40% in size
# Conditions: purified TrxR1 enzyme activity; Potency: inhibition; series mostly up to 57.1 µM
# How it was run: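 Inhibition is scored from the loss of NADPH fluorescence between first and last reads of an 8-min kinetic run. Selenite (400 uM) was the substrate, added after 15 min compound preincubation at room temperature.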
row,SMILES,Potency
1,CCN(CC)C(=S)SSC(=S)N(CC)CC,"inconclusive: 13.4 µM [inhibitor, partial curve]"
2,CN(C)c1ccc(/C=C2\C(=O)Nc3ccccc32)cc1,"inconclusive: 37.7 µM [inhibitor, single point]"
3,S=C(Nc1ccccc1)Nc1nccs1,active: 5.97 µM
4,O=Nc1ccc2oc(=O)ccc2c1,"inconclusive: 26.7 µM [inhibitor, single point]"
5,Oc1ccc(/C=C/c2cc(O)cc(O)c2)cc1,"inconclusive: 18.9 µM [inhibitor, single point]"
6,O=C1C(SCCO)=C(SCCO)C(=O)c2ccccc21,active: 26.7 µM
7,O=[N+]([O-])c1ccc2c(c1)S(=O)(=O)C=C2,active: 2.12 µM
8,O=C(CCCN1CCC(O)(c2ccc(Cl)cc2)CC1)c1ccc(F)cc1,"inconclusive: 2.67 µM [inhibitor, partial curve]"
9,N[C@@H](Cc1c[nH]c2ccc(O)cc12)C(=O)O,"inconclusive: 21.2 µM [inhibitor, single point]"
10,Oc1cc(O)cc(/C=C/c2ccc(O)c(O)c2)c1,"inconclusive: 7.52 µM [inhibitor, partial curve]"

# Target: Flap endonuclease 1 (Homo sapiens) (UniProt P39748)
# Sequence of UniProt P39748 (P39748 whole entry, looked up): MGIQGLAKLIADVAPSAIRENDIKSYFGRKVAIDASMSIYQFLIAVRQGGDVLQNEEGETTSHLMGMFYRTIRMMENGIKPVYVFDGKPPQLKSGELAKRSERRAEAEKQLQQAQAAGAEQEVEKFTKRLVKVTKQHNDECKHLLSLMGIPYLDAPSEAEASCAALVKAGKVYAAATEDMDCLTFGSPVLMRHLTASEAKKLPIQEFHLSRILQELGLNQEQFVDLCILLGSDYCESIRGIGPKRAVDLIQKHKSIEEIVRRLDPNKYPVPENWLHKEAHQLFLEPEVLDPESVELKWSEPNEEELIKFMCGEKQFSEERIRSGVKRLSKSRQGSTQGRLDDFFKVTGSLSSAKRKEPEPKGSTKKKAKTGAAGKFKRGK
# Test: qHTS Validation Assay for the Inhibitors of Human Flap endonuclease 1 (FEN1) (AID 488816)
# Conditions: FEN1 nuclease activity, fluorogenic DNA substrate; series mostly up to 57.1 µM
# How it was run: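 Steps: add FEN1 (10 nM reagent) or buffer only; pin compounds; hold 15 min at room temperature; start with substrate, 50 nM final; read at 0 and 15 min; correct, normalize and fit a four-parameter Hill curve.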
row,SMILES,Potency
1,CCN(CC)CCCC(C)Nc1c2ccc(Cl)cc2nc2ccc(OC)cc12 (stereo not drawn),active: 15 µM
2,COc1cc2nc(N3CCCN(C)CC3)nc(NC3CCN(Cc4ccccc4)CC3)c2cc1OC,"inconclusive: 13.4 µM [inhibitor, partial curve, poor fit]"
3,O=C1C(SCCO)=C(SCCO)C(=O)c2ccccc21,"inconclusive: 13.4 µM [inhibitor, partial curve]"
4,O=C1NC(=O)/C(=C/c2ccc3c(c2)OC(F)(F)O3)S1,inactive
5,NC(CO)C(=O)NNCc1ccc(O)c(O)c1O (stereo not drawn),inactive

# Target: M-phase phosphoprotein 8 (Homo sapiens) (UniProt Q99549)
# Sequence of UniProt Q99549 (Q99549 whole entry, looked up): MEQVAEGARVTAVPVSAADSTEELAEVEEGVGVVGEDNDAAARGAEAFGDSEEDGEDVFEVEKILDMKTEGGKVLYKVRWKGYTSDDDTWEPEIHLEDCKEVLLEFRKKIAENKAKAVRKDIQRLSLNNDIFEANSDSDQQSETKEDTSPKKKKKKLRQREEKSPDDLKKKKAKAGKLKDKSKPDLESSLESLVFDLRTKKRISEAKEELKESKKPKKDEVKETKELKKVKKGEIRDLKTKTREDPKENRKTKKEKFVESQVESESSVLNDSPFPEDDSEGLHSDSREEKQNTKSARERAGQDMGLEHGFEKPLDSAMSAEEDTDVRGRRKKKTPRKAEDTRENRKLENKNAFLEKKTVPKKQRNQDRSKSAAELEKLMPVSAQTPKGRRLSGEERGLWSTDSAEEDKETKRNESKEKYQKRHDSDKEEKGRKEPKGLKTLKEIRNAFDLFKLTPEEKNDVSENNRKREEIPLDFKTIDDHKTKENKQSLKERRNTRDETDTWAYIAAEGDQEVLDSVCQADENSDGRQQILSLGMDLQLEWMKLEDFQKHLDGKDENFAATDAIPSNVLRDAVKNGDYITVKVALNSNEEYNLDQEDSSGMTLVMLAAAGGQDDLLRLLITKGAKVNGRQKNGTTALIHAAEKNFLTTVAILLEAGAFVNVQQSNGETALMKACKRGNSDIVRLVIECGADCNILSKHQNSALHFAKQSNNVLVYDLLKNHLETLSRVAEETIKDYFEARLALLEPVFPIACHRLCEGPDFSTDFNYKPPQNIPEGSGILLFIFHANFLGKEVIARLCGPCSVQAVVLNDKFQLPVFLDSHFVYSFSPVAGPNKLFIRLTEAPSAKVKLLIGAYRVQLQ
# Test: qHTS Validation Assay for Inhibitors for MPP8 Chromodomain Interactions with Methylated Histone Tails (AID 488949); also: nearly all actives have a fitted effect of over 55% in size
# Conditions: AlphaScreen MPP8 binding to H3K9me3 peptide; series mostly up to 57.1 µM
# How it was run: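 AlphaScreen read-out: streptavidin donor and nickel chelate acceptor beads (final 10 ug/mL), 30 min in the dark at RT. Complex of 50 nM MPP8 and 50 nM b-H3(1-18)K9me3 peptide had been exposed to compounds for 30 min beforehand.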
row,SMILES,Potency
1,O=C1c2ccccc2C(=O)c2c(NCCc3ccc(O)cc3)ccc(NCCc3ccc(O)cc3)c21,active: 2.12 µM
2,CCN(CC)CCCC(C)Nc1c2ccc(Cl)cc2nc2ccc(OC)cc12 (stereo not drawn),"inconclusive: 89.1 µM [inhibitor, partial curve] and inconclusive: 23.8 µM [inhibitor, single point]"
3,O=C(Nc1ccc([N+](=O)[O-])cc1Cl)c1cc(Cl)ccc1O,"inconclusive: 79.4 µM [inhibitor, partial curve, poor fit]"
4,Oc1ccc(O)cc1,"inconclusive: 89.1 µM [inhibitor, single point]"
5,CSc1ccc2c(c1)C(N1CCN(C)CC1)Cc1ccccc1S2 (stereo not drawn),active: 44.7 µM
6,CCCCc1oc2ccccc2c1C(=O)c1cc(I)c(OCCN(CC)CC)c(I)c1,"inconclusive: 7.94 µM [inhibitor, full curve] and inactive"
7,CC(C)(C)c1ccc(C(=O)CCCN2CCC(OC(c3ccccc3)c3ccccc3)CC2)cc1,inactive
